The source gives no read counts; variants with many changes may rest on few reads.
B1: LINE1-mini (parent)
chain: GGCAGAGCUCAACACAGCGUGGCAAAGUGGCUGUGGCUAGACUGCC

Variants of: B1
Test: self-cleavage, relative activity (ratio to wild type); higher = more cleavage; in vitro, sequencing; the parent is a self-cleaving ribozyme

Variant | self-cleavage
C8A C23U G30U G36A | 2.5
C8A C23U G33U G36C | 0.03
C8A C23U G40A | 0.11
C8A C23U U38G | 0.02
C8A C31A C46U | 0.03
C8A C31A U34C A41U | 0.23
C8A C31G C37A | 0.02
C8A C31G U32G | 0.06
C8A C31U C37G C46G | 0.1
C8A C31U G33U | 0.17
C8A C31U U38A | 0.32
C8A C37U A39U | 0.29
C8A C37U G44U | 0.17
C8A G17A A24G | 0.26
C8A G17A C18A G27U G35C | 0.06
C8A G17A C18U G33U | 0.12
C8A G17A C46A | 0.28
C8A G17A G21A G30A | 2.05
C8A G17A G21C A24G | 1.01
C8A G17A G40A C46G | 0.22
C8A G17A U20G | 0.09

Variant | self-cleavage
C8A G17A U32G C46G | 0.08
C8A G17A U34G | 0.18
C8A G17A U34G G44C | 0.34
C8A G17A U38C | 0.06
C8A G17C A24G A41C G44A | 0.09
C8A G17C C18A C31G | 0.06
C8A G17C C18U G22A | 0.1
C8A G17C G27C G36A | 0.11
C8A G17C G30C | 0.11
C8A G17C G35U C37G | 0.05
C8A G17U A39C G40U | 0.06
C8A G17U C23A | 0.61
C8A G17U C23U G30C C45U | 0.35
C8A G17U G21U G40U | 0.04
C8A G17U G21U U28C | 0.07
C8A G17U G22A G36C | 0.12
C8A G17U G29A | 0.12
C8A G17U G36C A41U | 0.16
C8A G17U G40A | 0.24
C8A G17U U28G G36U | 0.31
C8A G19A A25G G29U C37U | 0.29

Variant | self-cleavage
C8A G19A A26C | 0.06
C8A G19A G29A C31U | 0.29
C8A G19A G35C A39G | 0.02
C8A G19C A26U U28C | 0.05
C8A G19C C23A A39C G44U | 0.06
C8A G19C C37U U43C | 0.05
C8A G19C G22C | 0.22
C8A G19C G33C U43A C46A | 0.15
C8A G19C U34G A41U | 0.19
C8A G19U A26U G29A U43C | 0.07
C8A G19U C23U A39U | 0.02
C8A G19U G22C C37G | 0.01
C8A G19U G22U C46A | 0.39
C8A G19U G27U U34C | 0.02
C8A G19U G35A | 0.15
C8A G21A A26U U28C | 0.11
C8A G21A A41C C42G | 0.35
C8A G21A G22U | 0.22
C8A G21A G30C | 0.06
C8A G21A G30C C31A G33U | 0.16
C8A G21A G35C U43G | 0.38

Variant | self-cleavage
C8A G21A G36U C37A C45G C46G | 1.16
C8A G21C U34A | 0.17
C8A G21C U38A | 0.64
C8A G21U A26U U32C | 0.09
C8A G21U C31U | 0.09
C8A G21U G22A G30C | 0.1
C8A G21U G27A U32C C42U | 0.05
C8A G21U G27U | 0.1
C8A G21U G30A C31G | 0.09
C8A G21U U28A | 0.08
C8A G21U U34C G36C | 0.09
C8A G22A C23G | 0.21
C8A G22A C37G | 0.01
C8A G22A C46A | 0.21
C8A G22A C46G | 0.29
C8A G22A G29A | 0.06
C8A G22C G29C | 0.16
C8A G22C G35U A39G C45G | 0.08
C8A G22C G36C | 0.15
C8A G22U G27U U32C C37A | 0.03
C8A G27A C45U | 0.65
